From PubChem BioAssay (NCI)
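Dose response: 5 concentrations. Exposure: 48 h. Format: 96-well plates. Endpoint: linear interpolation; highest concentration if not reached. GI50 marks 50% less growth. TGI is the concentration that stops growth completely.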

Tested on: NCI-H322M lung
Experiment: inhibition of tumour cell growth, NCI panel, 48 h

`NCCN1CCN(c2nc(-c3ccccc3)nc3nc(-c4ccccc4)oc23)CC1` gave a GI50 of 1.72 µM and a TGI of 3.14 µM.

For `Fc1ccc(-c2cc3nc(C(Cl)Cl)nc(-c4ccc(Cl)cc4)n3n2)cc1`, the GI50 was 2.08 µM and the TGI was 5.9 µM.
